Measured values from the supplement of paper PMC4967469.
pIC50: −log10 of the molar value. By IC50 is meant the dose at which the fit gives 50% viability; where the fit passes the top or lowest dose, that dose stands as a limit. AUC, from the same fit, is the share of area under the viability curve across the 256-fold dose range; values near 1 show little effect. For part of these data: Any top dose called inferred was calculated from the reported fits.

What was measured:
Test in all cases: Viability of human cancer cell lines after 72 h of drug (GDSC screen)
Paclitaxel = compound: CC(=O)O[C@H]1C(=O)[C@@]2(C)[C@H]([C@H](OC(=O)c3ccccc3)[C@]3(O)C[C@H](OC(=O)[C@H](O)[C@@H](NC(=O)c4ccccc4)c4ccccc4)C(C)=C1C3(C)C)[C@]1(OC(C)=O)CO[C@@H]1C[C@@H]2O [Paclitaxel]; conditions: top dose 0.1024 µM
Procedure: (§1)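 Human cancer cell lines in 384-well plates, medium with 10% serum, drug for 72 h over a 256-fold dose range (nine 2-fold or five 4-fold steps up to the top dose). Adherent lines were fixed and stained with the nucleic acid dye Syto60, suspension lines read with resazurin; signal relative to control wells, capped at 0 and 100%. One two-parameter sigmoid per drug and line, fitted in a mixed model over all curves with the slope shared within a line.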

Bortezomib = compound: CC(C)C[C@H](NC(=O)[C@H](Cc1ccccc1)NC(=O)c1cnccn1)B(O)O [Bortezomib]; conditions: top dose 0.02 µM
Procedure: as §1

Obatoclax mesylate = compound: COC1=CC(c2cc3ccccc3[nH]2)=N/C1=C\c1[nH]c(C)cc1C [Obatoclax mesylate]; conditions: top dose 16 µM
Procedure: as §1

CP724714 = compound: COCC(=O)NC/C=C/c1ccc2ncnc(Nc3ccc(Oc4ccc(C)nc4)c(C)c3)c2c1 [CP724714]; conditions: top dose 10.24 µM; top dose inferred
Procedure: as §1

STF-62247 = compound: Cc1cccc(Nc2nc(-c3ccncc3)cs2)c1 [STF-62247]; conditions: top dose 10.24 µM; top dose inferred
Procedure: as §1

CX-5461 = compound: Cc1cnc(CNC(=O)c2c(=O)c3ccc(N4CCCN(C)CC4)nc3n3c2sc2ccccc23)cn1 [CX-5461]; conditions: top dose 10.24 µM; top dose inferred
Procedure: as §1

| Cell Line | AUC (Paclitaxel) | pIC50 (Paclitaxel) | AUC (Bortezomib) | pIC50 (Bortezomib) | AUC (Obatoclax mesylate) | pIC50 (Obatoclax mesylate) | AUC (CP724714) | pIC50 (CP724714) | AUC (STF-62247) | pIC50 (STF-62247) | AUC (CX-5461) | pIC50 (CX-5461) |
| --- | --- | --- | --- | --- | --- | --- | --- | --- | --- | --- | --- | --- |
| KP-N-YS (neuroblastoma, adherent) | 0.838 | 7.08 | 0.887 | < 7.70 | 0.471 | 6.08 | 0.959 | < 4.99 | 0.949 | < 4.99 | 0.463 | 6.30 |
| KS-1 (glioma, adherent) | 0.479 | 8.26 | 0.321 | 9.46 | 0.374 | 6.39 | 0.924 | < 4.99 | 0.974 | < 4.99 | 0.842 | 5.00 |
| KU812 (chronic myeloid leukaemia, suspension) | 0.695 | 7.67 | 0.483 | 8.95 | 0.504 | 5.99 | 0.954 | < 4.99 | 0.988 | < 4.99 | 0.233 | 6.93 |
| L-428 (Hodgkin lymphoma, suspension) | 0.893 | 7.02 | 0.759 | 8.21 | 0.367 | 6.35 | 0.979 | < 4.99 | 0.99 | < 4.99 | 0.993 | < 4.99 |
| L-540 (Hodgkin lymphoma, suspension) | 0.797 | 7.37 | 0.414 | 9.13 | 0.297 | 6.54 | 0.99 | < 4.99 | 0.984 | < 4.99 | 0.99 | < 4.99 |
| L-1236 (Hodgkin lymphoma, suspension) | 0.902 | 7.01 | 0.584 | 8.69 | 0.717 | 5.44 | 0.986 | < 4.99 | 0.973 | < 4.99 | 0.991 | < 4.99 |
| LAMA-84 (chronic myeloid leukaemia, suspension) | 0.863 | 7.04 | 0.583 | 8.67 | 0.628 | 5.64 | 0.981 | < 4.99 | 0.953 | < 4.99 | 0.693 | 5.65 |
| LAN-6 (neuroblastoma, adherent) | 0.967 | < 6.99 | 0.577 | 8.68 | 0.571 | 5.79 | 0.927 | < 4.99 | 0.98 | < 4.99 | 0.983 | < 4.99 |
| LB373-MEL-D (melanoma, adherent) | 0.775 | 7.40 | 0.413 | 9.14 | 0.137 | 7.13 | 0.978 | < 4.99 | 0.982 | < 4.99 | 0.989 | < 4.99 |
| LB771-HNC (head and neck, adherent) | 0.69 | 7.60 | 0.344 | 9.39 | 0.259 | 6.77 | 0.956 | < 4.99 | 0.965 | < 4.99 | 0.957 | < 4.99 |
| LB831-BLC (bladder, adherent) | 0.653 | 7.76 | 0.38 | 9.24 | 0.37 | 6.36 | 0.986 | < 4.99 | 0.984 | < 4.99 | 0.987 | < 4.99 |
| LB996-RCC (kidney, adherent) | 0.794 | 7.25 | 0.645 | 8.47 | 0.385 | 6.34 | 0.981 | < 4.99 | 0.982 | < 4.99 | 0.979 | < 4.99 |
| LB1047-RCC (kidney, adherent) | 0.706 | 7.58 | 0.581 | 8.67 | 0.361 | 6.41 | 0.937 | < 4.99 | 0.954 | < 4.99 | 0.922 | < 4.99 |
| LB2241-RCC (kidney, adherent) | 0.984 | < 6.99 | 0.461 | 9.02 | 0.381 | 6.35 | 0.984 | < 4.99 | 0.982 | < 4.99 | 0.984 | < 4.99 |
| LB2518-MEL (melanoma, adherent) | 0.822 | 7.19 | 0.366 | 9.28 | 0.262 | 6.70 | 0.969 | < 4.99 | 0.982 | < 4.99 | 0.987 | < 4.99 |
| LC4-1 (lymphoblastic leukaemia, suspension) | 0.729 | 7.51 | 0.54 | 8.79 | 0.405 | 6.27 | 0.977 | < 4.99 | 0.884 | < 4.99 | 0.841 | 5.08 |
| LC-2-ad (lung adenocarcinoma, adherent) | 0.256 | 8.90 | 0.508 | 8.88 | 0.124 | > 7.20 | 0.972 | < 4.99 | 0.933 | < 4.99 | 0.783 | 5.36 |
| LNCaP-Clone-FGC (prostate, adherent) | 0.975 | < 6.99 | 0.957 | < 7.70 | 0.61 | 5.68 | 0.923 | < 4.99 | 0.905 | < 4.99 | 0.846 | 5.04 |
| LOUCY (T-cell lymphoblastic leukaemia, suspension) | 0.513 | 8.16 | 0.31 | 9.38 | 0.032 | > 7.20 | 0.988 | < 4.99 | 0.96 | < 4.99 | 0.204 | 6.97 |
| LS-123 (large intestine, adherent) | 0.661 | 7.68 | 0.523 | 8.83 | 0.189 | 7.09 | 0.943 | < 4.99 | 0.978 | < 4.99 | 0.903 | < 4.99 |
| LS-513 (large intestine, adherent) | 0.957 | < 6.99 | 0.888 | < 7.70 | 0.891 | < 4.80 | 0.962 | < 4.99 | 0.986 | < 4.99 | 0.916 | < 4.99 |

| Cell Line | AUC (Paclitaxel) | pIC50 (Paclitaxel) | AUC (Bortezomib) | pIC50 (Bortezomib) | AUC (Obatoclax mesylate) | pIC50 (Obatoclax mesylate) | AUC (CP724714) | pIC50 (CP724714) | AUC (STF-62247) | pIC50 (STF-62247) | AUC (CX-5461) | pIC50 (CX-5461) |
| --- | --- | --- | --- | --- | --- | --- | --- | --- | --- | --- | --- | --- |
| LU-65 (large cell lung carcinoma, suspension) | 0.809 | 7.18 | 0.731 | 8.19 | 0.35 | 6.45 | 0.974 | < 4.99 | 0.916 | < 4.99 | 0.895 | < 4.99 |
| LU-134-A (small cell lung carcinoma, suspension) | 0.786 | 7.33 | 0.664 | 8.43 | 0.832 | 4.95 | 0.975 | < 4.99 | 0.936 | < 4.99 | 0.593 | 5.93 |
| LU-139 (small cell lung carcinoma, suspension) | 0.814 | 7.12 | 0.67 | 8.37 | 0.595 | 5.71 | 0.975 | < 4.99 | 0.973 | < 4.99 | 0.855 | < 4.99 |
| LU-165 (small cell lung carcinoma, suspension) | 0.964 | < 6.99 | 0.868 | < 7.70 | 0.825 | 4.95 | 0.981 | < 4.99 | 0.987 | < 4.99 | 0.975 | < 4.99 |
| MC116 (B-cell lymphoma, suspension) | 0.426 | 8.37 | 0.678 | 8.47 | 0.133 | 6.89 | 0.999 | < 4.99 | 0.999 | < 4.99 | 0.998 | < 4.99 |
| MC-CAR (haematopoietic neoplasm, suspension) | 0.728 | 7.58 | 0.904 | < 7.70 | 0.166 | 6.95 | 0.986 | < 4.99 | 0.934 | < 4.99 | 0.61 | 5.91 |
| MDST8 (large intestine, adherent) | 0.845 | 7.14 | 0.65 | 8.49 | 0.817 | 5.05 | 0.985 | < 4.99 | 0.985 | < 4.99 | 0.961 | < 4.99 |
| ME-1 (acute myeloid leukaemia, suspension) | 0.964 | < 6.99 | 0.532 | 8.81 | 0.605 | 5.70 | 0.989 | < 4.99 | 0.987 | < 4.99 | 0.926 | < 4.99 |
| MEG-01 (chronic myeloid leukaemia, suspension) | 0.753 | 7.49 | 0.657 | 8.48 | 0.358 | 6.38 | 0.988 | < 4.99 | 0.94 | < 4.99 | 0.829 | 5.23 |
| MFH-ino (soft tissue, adherent) | 0.376 | 8.56 | 0.347 | 9.36 | 0.309 | 6.58 | 0.98 | < 4.99 | 0.982 | < 4.99 | 0.935 | < 4.99 |
| MFM-223 (breast, adherent) | 0.986 | < 6.99 | 0.791 | 8.05 | 0.62 | 5.67 | 0.982 | < 4.99 | 0.982 | < 4.99 | 0.987 | < 4.99 |
| MHH-NB-11 (neuroblastoma, adherent) | 0.881 | < 6.99 | 0.631 | 8.52 | 0.751 | 5.24 | 0.972 | < 4.99 | 0.98 | < 4.99 | 0.231 | 7.01 |
| MHH-PREB-1 (B-cell leukaemia, suspension) | 0.602 | 7.93 | 0.744 | 8.25 | 0.146 | 7.03 | 0.989 | < 4.99 | 0.866 | 5.12 | 0.765 | 5.47 |
| MLMA (hairy cell leukaemia, semi-adherent) | 0.83 | 7.19 | 0.81 | 7.97 | 0.227 | 6.80 | 0.984 | < 4.99 | 0.943 | < 4.99 | 0.873 | 5.00 |
| MMAC-SF (melanoma, adherent) | 0.754 | 7.45 | 0.225 | 9.72 | 0.166 | 7.04 | 0.987 | < 4.99 | 0.987 | < 4.99 | 0.987 | < 4.99 |
| MN-60 (B-cell leukaemia, suspension) | 0.98 | < 6.99 | 0.802 | 7.99 | 0.258 | 6.71 | 0.985 | < 4.99 | 0.978 | < 4.99 | 0.705 | 5.61 |
| MONO-MAC-6 (acute myeloid leukaemia, suspension) | 0.717 | 7.56 | 0.586 | 8.66 | 0.392 | 6.31 | 0.959 | < 4.99 | 0.911 | < 4.99 | 0.978 | < 4.99 |
| MPP-89 (mesothelioma, adherent) | 0.943 | < 6.99 | 0.521 | 8.84 | 0.383 | 6.37 | 0.981 | < 4.99 | 0.977 | < 4.99 | 0.982 | < 4.99 |
| MRK-nu-1 (breast, suspension) | 0.396 | 8.47 | 0.734 | 8.27 | 0.147 | 7.04 | 0.99 | < 4.99 | 0.872 | 5.08 | 0.701 | 5.65 |
| MS-1 (small cell lung carcinoma, suspension) | 0.845 | 7.20 | 0.979 | < 7.70 | 0.394 | 6.28 | 0.958 | < 4.99 | 0.991 | < 4.99 | 0.672 | 5.74 |
| MSTO-211H (mesothelioma, adherent) | 0.981 | < 6.99 | 0.86 | 7.84 | 0.656 | 5.59 | 0.976 | < 4.99 | 0.988 | < 4.99 | 0.991 | < 4.99 |
